56 sequences from the supplement of paper PMC11417369 can be followed below.

± gives the standard deviation of the averaged measurements. Some of the results follow.

The subject of this assay is PfAP2-EXP AP2 domain (GST-tagged). The experiment in a line: gcPBM binding intensity (ln(normalized median fluorescence intensity)); higher = stronger DNA binding. The gist of the method: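 The highest Masliner-normalised natural-log median intensity across replicate spots of either probe orientation is reported as binding intensity. GST-tagged P. falciparum DNA-binding domains expressed in E. coli were applied for 1 h to an Agilent 4 × 180k array of primer-extended double-stranded 36-bp intergenic genomic probes plus negative controls, and bound protein was detected with Alexa488 anti-GST antibody and scanned at 488 nm.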
Take “TTTCAACTTTTGTCATGTACACATAATTTTATTGCA [XGTACX_site6701]”: the “gcPBM binding intensity (ln)” value came to 8.89 ± 0.44.

On to “ATTTATTTATCAAATATTATCTTAAAAAAAAAAGAA [CACACA_negctrl_site1345]”, for which the “gcPBM binding intensity (ln)” value came to 8.21 ± 0.46.

On to “ATATTAAATATATACAGTACACATTACAATACAATA [XGTACX_site3221]”, for which the “gcPBM binding intensity (ln)” value came to 8.64 ± 0.24.

For “CTTTGTAGTTGGTCCACACACATATCTGGAAGAATA [CACACA_site4834]”, the “gcPBM binding intensity (ln)” value came out at 8.54 ± 0.39.

On to “TTTCTTAAACCGTACAGTACACACCTTTATAATGTT [XGTACX_site434]”, for which the “gcPBM binding intensity (ln)” value was 8.76 ± 0.32.

As for “TATTTTCCATGAGGTAGTACACATTAAAAAATCGTT [XGTACX_site6887]”, the “gcPBM binding intensity (ln)” value was 8.44 ± 0.29.

Take “TAAGCGTTTTTTAAAACACACATAAGAACTAAATGA [CACACA_site1670]”: the “gcPBM binding intensity (ln)” value is 8.63 ± 0.47.

As for “AAGGTTTTGGGTTTTAATTAATTTAATATGATTATA [XGTACX_negctrl_site147]”, the “gcPBM binding intensity (ln)” value came to 8.46 ± 0.59.

Turning to “TTACACCTTAGGATCTGTACAAATATATGACAAATC [XGTACX_site4333]”, the “gcPBM binding intensity (ln)” value turned out to be 8.47 ± 0.53.

In the case of “TAATATTAAAAAGAGACACACAAAAATATTAAAAAA [CACACA_site3120]”, the “gcPBM binding intensity (ln)” value worked out at 8.72 ± 0.58.

As to “CGACTTTTAAAATATACACACATATAAATAAATATA [CACACA_site6523]”, the “gcPBM binding intensity (ln)” value was determined as 8.35 ± 0.46.

Consider “TTACAATATAATAAATGTACATATAACAAATATATA [XGTACX_site2199]”, for which the “gcPBM binding intensity (ln)” value is 8.77 ± 0.47.

For the sequence “TTTTTTTTTTTTTGTAGTACATACTATTTTATTAAT [XGTACX_site950]”, the “gcPBM binding intensity (ln)” value was 8.39 ± 0.57.

Turning to “TAGATGTATTTTTAAAGTACTTTTTAATATATAATC [XGTACX_site1431]”, the “gcPBM binding intensity (ln)” value came to 8.3 ± 0.17.

In the case of “AGAATTATATACACAAGTACATAATGACATATATAT [XGTACX_site5617]”, the “gcPBM binding intensity (ln)” value was found to be 8.42 ± 0.35.

With “TAAAAAATTATATTCACACACATACACATATATATA [CACACA_site545]”, the “gcPBM binding intensity (ln)” value was found to be 8.54 ± 0.43.

Take “AAAATATGTTAATATTGTACTTAAATAAAAAAAATA [XGTACX_site7152]”: the “gcPBM binding intensity (ln)” value worked out at 8.37 ± 0.28.

On to “ATTCTTAAAATAAAATGTACGAAAAAAAAAAAAAAA [XGTACX_site1657]”, for which the “gcPBM binding intensity (ln)” value was determined as 8.28 ± 0.52.

For “TATATATATATAAACGCATGTAATTTATACACACAT [TGCATGCA_site946]”, the “gcPBM binding intensity (ln)” value amounted to 9.91 ± 0.33.

With “ATCTTTCCTTTTGCATGTACATATGGAAATACTTTT [XGTACX_site6995]”, the “gcPBM binding intensity (ln)” value worked out at 9.17 ± 0.18.

Consider ATAATTAAGTTATGTGTGCACTGTTAAAAATAAATG, for which the “gcPBM binding intensity (ln)” value amounted to 9.35 ± 0.19.

With “ATACACATAACATATATATATATATATATATATATC [CACACA_negctrl_site278]”, the “gcPBM binding intensity (ln)” value amounted to 8.915 ± 0.021.

On to “TTTTATGATATTTACACACAAACGTGAGATAGCTCA [CACACA_site2311]”, for which the “gcPBM binding intensity (ln)” value worked out at 8.33 ± 0.41.

For the sequence “AATATAATATCTATAATATAAAAAAAACAAAAAAAA [CACACA_negctrl_site875]”, the “gcPBM binding intensity (ln)” value came out at 8.36 ± 0.53.

On to “TTTTTTATTTTTTACATATTTAGCTCATATTTATAT [GTGCAC_negctrl_site491]”, for which the “gcPBM binding intensity (ln)” value was determined as 8.57 ± 0.3.

Turning to “TAAAAGGATACATATACACACATATATATATATATA [CACACA_site2791]”, the “gcPBM binding intensity (ln)” value is 10.2 ± 0.42.

As to “ATATTTTTATATAATGAACACACATATTATATCATT [CACACA_site8446]”, the “gcPBM binding intensity (ln)” value came out at 8.34 ± 0.43.

For the sequence “TTCTTCAACAAAAAAATAAAAATAAAATAATAAAAA [GTGCAC_negctrl_site619]”, the “gcPBM binding intensity (ln)” value came to 8.4 ± 0.39.

On to “ATAAATCGATAAAATATATGCTACATGAATAAATAA [XGTACX_negctrl_site604]”, for which the “gcPBM binding intensity (ln)” value was 8.49 ± 0.42.

“TTTAAAAAATTATATTCACACACATACACATATATA [CACACA_site8076]”: the “gcPBM binding intensity (ln)” value was found to be 8.51 ± 0.59.

Regarding “TAACTATTATAAAAATGTACAAATGAAAATATTTTT [XGTACX_site1438]”, the “gcPBM binding intensity (ln)” value came to 8.63 ± 0.47.

In the case of “CTTTATTATAAGATTACACACATGTCTTATAATTTA [CACACA_site5715]”, the “gcPBM binding intensity (ln)” value came to 8.54 ± 0.47.

In the case of “TAAAAGTTTTTATACATACACACCTATAAATTAAGT [CACACA_site2446]”, the “gcPBM binding intensity (ln)” value came out at 8.49 ± 0.4.

For “AAAATAAAAATAAAAGCACACATAAATATATATATA [CACACA_site8409]”, the “gcPBM binding intensity (ln)” value was 9.64 ± 0.28.

Take “TACCAAAAAAAAAAAAATAAAAATAAAAAAAAAAAT [CACACA_negctrl_site1714]”: the “gcPBM binding intensity (ln)” value amounted to 8.18 ± 0.54.

Consider “TTCCTGTTAATTACAACACACAATTTTTATTTTATG [CACACA_site779]”, for which the “gcPBM binding intensity (ln)” value worked out at 8.81 ± 0.42.

On to “TAATTAAATACATTAACACACACACTAATATATACA [CACACA_site8938]”, for which the “gcPBM binding intensity (ln)” value was 8.69 ± 0.52.

For “AAGGCATGACTATCTGCACACATAAAAATAAGAAAT [CACACA_site8180]”, the “gcPBM binding intensity (ln)” value was 8.85 ± 0.49.

“TAAACATAATAATATACACACATATATTGATATATA [CACACA_site2144]”: the “gcPBM binding intensity (ln)” value came out at 8.18 ± 0.43.

Take “TAAAAAAAAATATAATGTACGTATAAATATATATTA [XGTACX_site5085]”: the “gcPBM binding intensity (ln)” value amounted to 8.61 ± 0.35.

Turning to “AATTTTTTTTTTTTGTGTCCTCATAATTCTTCATTC [XGTACX_site5042]”, the “gcPBM binding intensity (ln)” value turned out to be 8.62 ± 0.39.

“TATATTTATTTAAAAACATGCATTTTTTTTTTCCGT [TGCATGCA_site44]”: the “gcPBM binding intensity (ln)” value was 9.38 ± 0.27.

As for “TTTTTTTTTTTTACATGTACTTATTTTAAATATAAA [XGTACX_site805]”, the “gcPBM binding intensity (ln)” value came out at 8.86 ± 0.37.

In the case of “AAAATTAAAACCTACACACACATTTAAAAAAAAAAA [CACACA_site3068]”, the “gcPBM binding intensity (ln)” value was found to be 8.41 ± 0.5.

As to “ATTTTTTTGGTAATTTGTACATAATATATACATAAT [XGTACX_site3742]”, the “gcPBM binding intensity (ln)” value turned out to be 8.8 ± 0.38.

As for “ATATATTTATAGACTTGTACATATATATACGATATA [XGTACX_site8890]”, the “gcPBM binding intensity (ln)” value worked out at 8.41 ± 0.3.

As for “TATATTATAGGTTGTGTACACATATTATATAGTACT [CACACA_site4583]”, the “gcPBM binding intensity (ln)” value came out at 8.68 ± 0.15.

Turning to “TTTTTTTTTTTTTTTTGTACTTATAAAATAACATGT [XGTACX_site134]”, the “gcPBM binding intensity (ln)” value was found to be 8 ± 0.071.

In the case of “TAATACTTAGAGAAAAGTACGTATGAACTTATGTAA [XGTACX_site5504]”, the “gcPBM binding intensity (ln)” value worked out at 8.42 ± 0.4.

With “TTTTGTTTAGTGTATTGTACAATATATCTTTATTTT [XGTACX_site5163]”, the “gcPBM binding intensity (ln)” value worked out at 8.78 ± 0.42.

Consider “AGTCCTTACACATATATTAAATATGTGTATATATAT [XGTACX_negctrl_site336]”, for which the “gcPBM binding intensity (ln)” value came out at 8.78 ± 0.099.

For the sequence “AAAAAAAAAAAAAAAAGTACATATATATATATAATT [XGTACX_site4437]”, the “gcPBM binding intensity (ln)” value came to 8.53 ± 0.19.

With “TATTAATACGGACACACACACACACTAGATAAAATA [CACACA_site4295]”, the “gcPBM binding intensity (ln)” value was 8.89 ± 0.38.

Take “AAACATTTATGAAGGTGTACAAAAATGAATTAAAAA [XGTACX_site7035]”: the “gcPBM binding intensity (ln)” value stood at 8.8 ± 0.41.

Take “TATTTAAATACTGACGCATGCATAAGGAGTAATAGT [TGCATGCA_site465]”: the “gcPBM binding intensity (ln)” value was 9.98 ± 0.47.

As for “ATATTGAAAATTTGAAGTACATCTAAATATATTATT [XGTACX_site7817]”, the “gcPBM binding intensity (ln)” value came out at 8.38 ± 0.25.
